# According to PubChem BioAssay AID2112 (National Center for Advancing Translational Sciences (NCATS), 2009):
# The campaign covered roughly 240,000 compounds. About 15 (0.006%) were called active. Inconclusive means that the source gave no clear call. Such entries were picked first, then a sample of the others. Calls follow the shape of the dose curve; as a rule, active = well fitted inhibition curve with a large enough effect; inconclusive = small, poorly fitted or top-dose-only effect, or effect the other way, or another doubt; inactive = no such curve, though single readings can be large or run the other way. No potency is given beside an inconclusive call; the fits are too rough.
# Biological target: Lysosomal alpha-glucosidase (Homo sapiens) (UniProt P10253)
# Experiment: qHTS Assay for Inhibitors and Activators of Human alpha-Glucosidase From Spleen Homogenate;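 as to activity change, negative = inhibition: 0% = enzyme with vehicle and -100% = no enzyme basal signal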
# Conditions: 4-MU-alpha-glucoside fluorescence; series mostly up to 79.9 µM; activity change, negative = inhibition: at the top concentration
# Summary of the method: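 Compounds were titrated against alpha-glucosidase in spleen homogenate at pH 5.0, with 1 mM 4-methylumbelliferyl substrate for 40 min at 37 C. Reactions were quenched with pH 10 NaOH/glycine and fluorescence measured.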
# Potency is read from the fitted curve at half-maximal effect; tags tell the direction and shape of the fitted curve.
Structure (SMILES),Potency,"activity change, negative = inhibition"
C=CCn1c(=O)c(C#N)cc2c(=O)n3ccccc3nc21,"inconclusive [activator, full curve]",
Cc1ccc(CNC(=O)C2(C(F)(F)F)C/C(=C\Cc3ccccc3)CCCO2)o1 (configuration not stated),,inactive: 0.641%
Brc1ccc(-c2cnco2)cc1,"inconclusive [inhibitor, single point]",
Cc1cc(C(F)(F)F)nc(SCc2ccc(C(=O)O)o2)n1,,inactive: 2.88%
COC(=O)C1=CN(C(C)C)C=C(C(=O)OC)C1c1cccc(OC)c1,"inconclusive [activator, partial curve]",
CC(C)c1cccc2nc3c(c([Si](C)(C)C)c12)Cn1c-3cccc1=O,"inconclusive [activator, single point]",
CC(Oc1ccc(-c2ccccc2)c(F)c1)c1ccn(S(=O)(=O)c2ccc(Br)cc2)n1 (configuration not stated),"inconclusive [inhibitor, single point]",
CCOC(=O)CCN1C(=O)[C@H]2[C@H]3[C@H](O)[C@H](O)C/C(=N/OC/C=C(\C)CCC=C(C)C)[C@H]3CC[C@@H]2C1=O,,inactive: 1.06% [at 17.4 µM]
Cc1ccc(Nc2ncc(C(=O)NCCCN3CCN(C)CC3)c3ccccc23)cc1Cl,"inconclusive [inhibitor, full curve, poor fit]",
O=C1CCCC2=C1Sc1ccccc1N2,,inactive: 8.1%
O=C(O)c1ccccc1O[C@@H]1O[C@H](C(=O)O)[C@@H](O)[C@H](O)[C@H]1O,,inactive: -3%
C=CCN1c2ccccc2[C@]23C[C@@H](C(=O)OC)N(S(=O)(=O)c4c(C)noc4C)C2=NC(C(=O)OC)=C(C(=O)OC)[C@H]13,,inactive: -9.85% [at 17.4 µM]
CC(=O)Oc1ccc2c(C)cc(=O)oc2c1,"inconclusive [activator, partial curve]",
O=C1C=C(O)C(n2cncn2)C(c2ccc(F)cc2)C1 (configuration not stated),"inconclusive [inhibitor, single point]",
CCOc1ccccc1-c1nnc2n1N=C(c1ccc(OC)cc1)CS2,,inactive: -3.53%
COc1ccc2cc(S(=O)(=O)c3ccccc3)c(=O)oc2c1,"inconclusive [activator, partial curve]",
O=C1C=C(NCc2ccccc2)c2ccccc2C1=O,,inactive: 11.3%
CC1(C)CC(=O)c2sc(NC(=O)CCS(=O)(=O)c3ccccc3)nc2C1,,inactive: -10.6%
CC(=O)Nc1ccc(S(=O)(=O)NCC(=O)OCc2cc(=O)oc3ccc4ccccc4c23)cc1,"inconclusive [activator, single point]",
C=CCn1c(C)cc(C(=O)COc2ccc(S(=O)(=O)N3CCCC3)cc2[N+](=O)[O-])c1C,"inconclusive [inhibitor, partial curve, poor fit]",
Cc1cc(C)cc(-n2nnc(C(=O)NCc3ccco3)c2N)c1,,inactive: -5.48%
O=C1C2C(C(=O)N1Cc1ccco1)C1C=CC2C12CC2 (configuration not stated),"inconclusive [inhibitor, partial curve]",
O=C(OCC1OC(OC(=O)c2cc(O)c(O)c(OC(=O)c3cc(O)c(O)c(O)c3)c2)[C@@H](OC(=O)c2cc(O)c(O)c(OC(=O)c3cc(O)c(O)c(O)c3)c2)C(OC(=O)c2cc(O)c(O)c(OC(=O)c3cc(O)c(O)c(O)c3)c2)C1OC(=O)c1cc(O)c(O)c(OC(=O)c2cc(O)c(O)c(O)c2)c1)c1cc(O)c(O)c(OC(=O)c2cc(O)c(O)c(O)c2)c1 (some centres not stated),"inconclusive [inhibitor, single point]",

Structure (SMILES),Potency,"activity change, negative = inhibition"
CCC(NC(=O)Nc1nnc(C(F)(F)F)s1)(C(F)(F)F)C(F)(F)F,"inconclusive [inhibitor, partial curve, poor fit]",
COc1cc(/C=N/Nc2nc3ccccc3[nH]2)cc(OC)c1O,,inactive: -5.48%
CCOc1ccc(C2C(C(=O)OC)=CN(CCOC)C=C2C(=O)OC)cc1,"inconclusive [activator, partial curve]",
Cc1nnc(SCC(=O)Nc2nsc(-c3ccc(C(C)(C)C)cc3)n2)s1,"inconclusive [inhibitor, partial curve]",
c1ccc2c(c1)nnn1c3ccccc3nc21,,inactive: 6.56%
COCCNC(=O)/C(C#N)=C/c1c(N2CC(C)OC(C)C2)nc2ccccn2c1=O (configuration not stated),"inconclusive [activator, partial curve]",
O=S(=O)(Nc1cc(O)cc2cccnc12)c1ccc(Cl)s1,,inactive: 7.39%
COc1ccc(N2CCN(C(=O)CSc3nc4[nH]ncc4c(=O)n3-c3cccc4ccccc34)CC2)cc1,,inactive: 3.36%
Nc1nc(-c2ccccc2)c(N=Nc2ccccc2Cl)s1,,inactive: -7.44%
CCCCCOC(=O)c1c(N)n(CCOC)c2nc3ccccc3nc12,"inconclusive [activator, single point]",
O=C1CCCC(=NCc2ccco2)C1,,inactive: -2.46%
COc1cc(C2c3cc4c(cc3C(O[C@@H]3OC5COC(c6cccs6)OC5C(O)C3O)C3COC(=O)C23)OCO4)cc(OC)c1O (some centres not stated),"inconclusive [activator, partial curve]",
Nc1c(C(=O)NCCN2CCOCC2)c2nc3ccccc3nc2n1-c1ccccc1,"inconclusive [activator, partial curve]",
COc1ccc(CCNc2c3ccccc3nc3ccccc23)cc1OC,"inconclusive [activator, single point]",
Cc1cccc(CN2CCCC(C(=O)N3CCc4ccccc4C3)C2)c1 (configuration not stated),"inconclusive [inhibitor, single point]",
COc1cccc(C2C(C#N)=C(N)Oc3cc(N)ccc32)c1OC (configuration not stated),"inconclusive [activator, single point]",
O=C(O)c1cc(-c2ccccc2)nc2nc(N3CCCCC3)sc12,"inconclusive [activator, partial curve]",
Cc1cc(=O)n(-c2ccc(C(=O)O)cc2)[nH]1,,inactive: 1.5%
COCCCN=C(c1ccco1)n1c(=S)nc(-c2ccco2)n(CCCOC)c1=S,,inactive: -5.11%
CN(C)Cc1c(O)ccc2c3c(c(=O)oc12)CCCCC3,"inconclusive [activator, partial curve]",
CCC(=O)N1CCN(c2ccc(Cl)cc2NC(=O)c2ccc(N3CCCC3)c([N+](=O)[O-])c2)CC1,"inconclusive [inhibitor, partial curve]",
O=c1oc2c(CN3CCOCC3)c(O)ccc2c2c1CCCC2,"inconclusive [activator, partial curve]",
COCCCn1c(N)c(C(=O)OC(C)COC)c2nc3ccccc3nc21 (configuration not stated),"inconclusive [activator, single point]",

Structure (SMILES),Potency,"activity change, negative = inhibition"
CCCCn1c(SCC(=O)NCc2ccccc2)nc2ccc(N3CCOCC3)cc2c1=O,,inactive: -5.14%
Cc1nc(NC(=O)CSc2nnnn2C)sc1C,"inconclusive [inhibitor, full curve, poor fit]",
CCCC/C(O)=C1\C(=O)CC(C)(C)CC1=Nc1ccccc1OC,"inconclusive [inhibitor, single point]",
COCCN1C=C2C(=O)C(C)(OC(=O)CCC(=O)OC)C(=O)C=C2C=C1C1CC1 (configuration not stated),inactive,
COP(=O)(OC)c1nc(-c2cccc3ccccc23)oc1NCc1ccccc1,"inconclusive [activator, partial curve]",
CCNc1ncc2nc(C)c(=O)n(CCOC)c2n1,"inconclusive [activator, partial curve]",
CCN1C=CC(=C2C(=O)c3ccccc3C2=O)C=C1,"inconclusive [inhibitor, partial curve, poor fit]",
CCCc1cc(NCCCCO)n2c(nc3ccccc32)c1C#N,"inconclusive [activator, single point]",
COc1ccc(CCN2C(=O)C3C4C=CC(C3C2=O)C2C(=O)N(CCc3ccc(OC)c(OC)c3)C(=O)C42)cc1OC (configuration not stated),,inactive: 3.9%
COC(=O)c1c(NC(=O)Cn2nc(C(F)F)cc2C(F)F)sc(C)c1C,"inconclusive [inhibitor, partial curve]",
CCOc1ccccc1NC(=S)NCCCn1ccnc1,"inconclusive [inhibitor, single point]",
S=c1[nH]nc(-c2ccncc2)n1Cc1ccco1,"inconclusive [inhibitor, partial curve]",
NC(=NCc1ccc(Cl)cc1Cl)NC(=O)c1nc(Cl)c(N)nc1N,"inconclusive [activator, partial curve, poor fit]",
CC(=O)Oc1cc2oc(=O)cc(C)c2cc1OC(C)=O,"inconclusive [activator, single point]",
Cn1cc(SCC(=O)Nc2ccc3c(c2)OCCO3)c2ccccc21,"inconclusive [inhibitor, partial curve]",
Cc1cccn2c(=O)c3cc(C(N)=S)c(=N)n(CCCOC(C)C)c3nc12,"inconclusive [activator, single point]",
Cc1ccc(/C(O)=C/c2nc3cc(C)ccc3oc2=O)cc1,,inactive: -8.44%
Nc1c(C(=O)NC2CCCC2)c2nc3ccccc3nc2n1CC1CCCO1 (configuration not stated),"inconclusive [activator, single point]",
CCOC(=O)Cc1csc(Nc2c(C)n(C)n(-c3ccccc3)c2=O)n1,,inactive: -1.07%
COC(=O)Cc1c(C)c2ccc(O)c(CN3CCCC(C)C3)c2oc1=O (configuration not stated),"inconclusive [activator, partial curve]",
CCNc1nc(N)c(C(=C(C#N)C#N)c2ccccc2)s1,"inconclusive [activator, single point]",
